The supplement of paper PMC11741623
This is one part of the list. Interaction screen of human proteins with wild-type SARS-CoV-2 proteins by split-DHFR complementation in yeast, 1 µg/mL methotrexate. Value = fitness of the pair (three or more lineages) minus that of the viral protein without a human partner, on a scale set by negative (0) and fused positive (1) controls, mean of up to three cultures; higher = more likely to interact. Active = false discovery rate below 0.05 (one-sided t-test) in at least one culture. Nearly all pairs are not hits, and differences among them are mostly noise (correlation between cultures about 0.3); most hits were seen in one culture only. Human sequences are the Swiss-Prot entries looked up by gene name; the clone may be another isoform. NSP2 values were corrected by the authors for a growth advantage. Listed are human proteins with a hit and a random twelfth of the others.

Key:
Experiment in all cases: yeast fitness gain over the viral ORF with no human partner (scaled fitness); higher = more likely to interact
SARS-CoV-2 M = target: SARS-CoV-2 M
Procedure: (§1)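 Split mouse DHFR complementation in pooled diploid yeast: human ORFeome clones carry one fragment and viral ORFs the other; barcoded lineages compete in 1 µg/mL methotrexate and fitness is read by barcode sequencing in up to three cultures.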

SARS-CoV-2 N = target: SARS-CoV-2 N
Procedure: as §1

SARS-CoV-2 NSP1 = target: SARS-CoV-2 NSP1
Procedure: as §1

SARS-CoV-2 NSP10 = target: SARS-CoV-2 NSP10
Procedure: as §1

SARS-CoV-2 NSP12 = target: SARS-CoV-2 NSP12
Procedure: as §1

SARS-CoV-2 NSP13 = target: SARS-CoV-2 NSP13
Procedure: as §1

SARS-CoV-2 NSP2 = target: SARS-CoV-2 NSP2
Procedure: as §1

SARS-CoV-2 NSP5 = target: SARS-CoV-2 NSP5
Procedure: as §1

SARS-CoV-2 NSP6 = target: SARS-CoV-2 NSP6
Procedure: as §1

SARS-CoV-2 NSP7 = target: SARS-CoV-2 NSP7
Procedure: as §1

SARS-CoV-2 NSP8 = target: SARS-CoV-2 NSP8
Procedure: as §1

SARS-CoV-2 NSP9 = target: SARS-CoV-2 NSP9
Procedure: as §1

SARS-CoV-2 ORF10 = target: SARS-CoV-2 ORF10
Procedure: as §1

SARS-CoV-2 ORF3A = target: SARS-CoV-2 ORF3A
Procedure: as §1

SARS-CoV-2 ORF3B = target: SARS-CoV-2 ORF3B
Procedure: as §1

SARS-CoV-2 ORF6 = target: SARS-CoV-2 ORF6
Procedure: as §1

SARS-CoV-2 ORF7A = target: SARS-CoV-2 ORF7A
Procedure: as §1

SARS-CoV-2 ORF7B = target: SARS-CoV-2 ORF7B
Procedure: as §1

SARS-CoV-2 ORF8 = target: SARS-CoV-2 ORF8
Procedure: as §1

SARS-CoV-2 ORF9B = target: SARS-CoV-2 ORF9B
Procedure: as §1

[1] = target: SARS-CoV-2 ORF9Bwu (the 73-codon ORF)
Procedure: as §1

SARS-CoV-2 S = target: SARS-CoV-2 S
Procedure: as §1

SARS-CoV-2 NSP15 = target: SARS-CoV-2 NSP15
Procedure: as §1

SARS-CoV-2 NSP16 = target: SARS-CoV-2 NSP16
Procedure: as §1

SARS-CoV-2 NSP14 = target: SARS-CoV-2 NSP14
Procedure: as §1

SARS-CoV-2 NSP4 = target: SARS-CoV-2 NSP4
Procedure: as §1

Measured: yeast fitness gain

B1: TMEM25, Q86YD3 (protein)
chain: MALPPGPAALRHTLLLLPALLSSGWGELEPQIDGQTWAERALRENERHAFTCRVAGGPGTPRLAWYLDGQLQEASTSRLLSVGGEAFSGGTSTFTVTAHRAQHELNCSLQDPRSGRSANASVILNVQFKPEIAQVGAKYQEAQGPGLLVVLFALVRANPPANVTWIDQDGPVTVNTSDFLVLDAQNYPWLTNHTVQLQLRSLAHNLSVVATNDVGVTSASLPAPGLLATRVEVPLLGIVVAAGLALGTLVGFSTLVACLVCRKEKKTKGPSRHPSLISSDSNNLKLNNVRLPRENMSLPSNLQLNDLTPDSRAVKPADRQMAQNNSRPELLDPEPGGLLTSQGFIRLPVLGYIYRVSSVSSDEIWL
inactive: SARS-CoV-2 M -0.0292 | SARS-CoV-2 N 0.105 | SARS-CoV-2 NSP1 = -0.0293 | SARS-CoV-2 NSP10 = -0.0773 | SARS-CoV-2 NSP12 = 0.00883 | SARS-CoV-2 NSP13 = 0.00781 | SARS-CoV-2 NSP2 = -0.133 | SARS-CoV-2 NSP5 = 0.0146 | SARS-CoV-2 NSP6 = 0.0644 | SARS-CoV-2 NSP7 = 0.0144 | SARS-CoV-2 NSP8 = 0.0355 | SARS-CoV-2 NSP9 = -0.0578 | SARS-CoV-2 ORF10 = 0.0905 | SARS-CoV-2 ORF3A -0.224 | SARS-CoV-2 ORF3B 0.0408 | SARS-CoV-2 ORF6 = -0.0737 | SARS-CoV-2 ORF7A -0.0596 | SARS-CoV-2 ORF7B -0.00142 | SARS-CoV-2 ORF8 = -0.00777 | SARS-CoV-2 ORF9B -0.0244 | [1] -0.174 | SARS-CoV-2 S -0.0447

B2: AQP3, Q92482 (protein)
chain: MGRQKELVSRCGEMLHIRYRLLRQALAECLGTLILVMFGCGSVAQVVLSRGTHGGFLTINLAFGFAVTLGILIAGQVSGAHLNPAVTFAMCFLAREPWIKLPIYTLAQTLGAFLGAGIVFGLYYDAIWHFADNQLFVSGPNGTAGIFATYPSGHLDMINGFFDQFIGTASLIVCVLAIVDPYNNPVPRGLEAFTVGLVVLVIGTSMGFNSGYAVNPARDFGPRLFTALAGWGSAVFTTGQHWWWVPIVSPLLGSIAGVFVYQLMIGCHLEQPPPSNEEENVKLAHVKHKEQI
inactive: SARS-CoV-2 M -0.0061 | SARS-CoV-2 NSP12 = -0.0481 | SARS-CoV-2 NSP13 = 0.0517 | SARS-CoV-2 NSP2 = -0.316 | SARS-CoV-2 NSP5 = -0.0578 | SARS-CoV-2 NSP6 = -0.0483 | SARS-CoV-2 ORF10 = 0.046 | SARS-CoV-2 ORF6 = 0.0237 | SARS-CoV-2 ORF7B 0.064 | SARS-CoV-2 ORF8 = -0.0548 | SARS-CoV-2 ORF9B 0.0717 | SARS-CoV-2 S 0.0167

B3: C2orf68, Q2NKX9 (protein)
chain: MEAGPHPRPGHCCKPGGRLDMNHGFVHHIRRNQIARDDYDKKVKQAAKEKVRRRHTPAPTRPRKPDLQVYLPRHRDVSAHPRNPDYEESGESSSSGGSELEPSGHQLFCLEYEADSGEVTSVIVYQGDDPGKVSEKVSAHTPLDPPMREALKLRIQEEIAKRQSQH
inactive: SARS-CoV-2 M 0.0423 | SARS-CoV-2 NSP10 = -0.027 | SARS-CoV-2 NSP12 = -0.0885 | SARS-CoV-2 NSP13 = 0.0443 | SARS-CoV-2 NSP15 = -0.0331 | SARS-CoV-2 NSP16 = 0.155 | SARS-CoV-2 NSP2 = -0.13 | SARS-CoV-2 NSP5 = 0.0493 | SARS-CoV-2 NSP6 = 0.0354 | SARS-CoV-2 NSP7 = 0.0292 | SARS-CoV-2 NSP8 = 0.0703 | SARS-CoV-2 ORF10 = 0.079 | SARS-CoV-2 ORF3B -0.0414 | SARS-CoV-2 ORF6 = -0.0658 | SARS-CoV-2 ORF7A -0.0893 | SARS-CoV-2 ORF7B -0.265 | SARS-CoV-2 ORF8 = 0.0666 | SARS-CoV-2 ORF9B 0.0298 | SARS-CoV-2 S 0.0545

B4: DDX47, Q9H0S4 (protein)
chain: MAAPEEHDSPTEASQPIVEEEETKTFKDLGVTDVLCEACDQLGWTKPTKIQIEAIPLALQGRDIIGLAETGSGKTGAFALPILNALLETPQRLFALVLTPTRELAFQISEQFEALGSSIGVQSAVIVGGIDSMSQSLALAKKPHIIIATPGRLIDHLENTKGFNLRALKYLVMDEADRILNMDFETEVDKILKVIPRDRKTFLFSATMTKKVQKLQRAALKNPVKCAVSSKYQTVEKLQQYYIFIPSKFKDTYLVYILNELAGNSFMIFCSTCNNTQRTALLLRNLGFTAIPLHGQMSQSKRLGSLNKFKAKARSILLATDVASRGLDIPHVDVVVNFDIPTHSKDYIHRVGRTARAGRSGKAITFVTQYDVELFQRIEHLIGKKLPGFPTQDDEVMMLTERVAEAQRFARMELREHGEKKKRSREDAGDNDDTEGAIGVRNKVAGGKMKKRKGR
inactive: SARS-CoV-2 M 0.0226 | SARS-CoV-2 N -0.0194 | SARS-CoV-2 NSP1 = -0.0636 | SARS-CoV-2 NSP10 = 0.0245 | SARS-CoV-2 NSP12 = -0.0239 | SARS-CoV-2 NSP13 = 0.0287 | SARS-CoV-2 NSP14 = -0.0756 | SARS-CoV-2 NSP15 = -0.0113 | SARS-CoV-2 NSP16 = -0.0397 | SARS-CoV-2 NSP2 = -0.177 | SARS-CoV-2 NSP4 = -0.156 | SARS-CoV-2 NSP5 = 0.0223 | SARS-CoV-2 NSP6 = 0.0549 | SARS-CoV-2 NSP7 = -0.024 | SARS-CoV-2 NSP8 = 0.0855 | SARS-CoV-2 NSP9 = 0.061 | SARS-CoV-2 ORF10 = -0.00262 | SARS-CoV-2 ORF3A -0.0348 | SARS-CoV-2 ORF3B 0.0328 | SARS-CoV-2 ORF6 = 0.0343 | SARS-CoV-2 ORF7A 0.0249 | SARS-CoV-2 ORF7B 0.00534 | SARS-CoV-2 ORF8 = 0.0276 | SARS-CoV-2 ORF9B 0.0335 | [1] 0.0848 | SARS-CoV-2 S 0.0579
